Experimental data reported in the supplement of paper PMC10681739.
± gives the standard deviation of the averaged measurements. The full ranking holds about 4,100 sequences; the median of “arbitrary fluorescence units” is about 780, and the highest 2% start at about 22,000. This is one part of the list.

What follows are sequences tested against T1, ETS1 (UniProt P14921) (assay: ETS1 binding intensity (PBM fluorescence), ETS1 alone (arbitrary fluorescence units); higher = stronger binding). Conditions: ETS1 concentration 1 nM; RUNX1 concentration 0 nM.
T1 sequence: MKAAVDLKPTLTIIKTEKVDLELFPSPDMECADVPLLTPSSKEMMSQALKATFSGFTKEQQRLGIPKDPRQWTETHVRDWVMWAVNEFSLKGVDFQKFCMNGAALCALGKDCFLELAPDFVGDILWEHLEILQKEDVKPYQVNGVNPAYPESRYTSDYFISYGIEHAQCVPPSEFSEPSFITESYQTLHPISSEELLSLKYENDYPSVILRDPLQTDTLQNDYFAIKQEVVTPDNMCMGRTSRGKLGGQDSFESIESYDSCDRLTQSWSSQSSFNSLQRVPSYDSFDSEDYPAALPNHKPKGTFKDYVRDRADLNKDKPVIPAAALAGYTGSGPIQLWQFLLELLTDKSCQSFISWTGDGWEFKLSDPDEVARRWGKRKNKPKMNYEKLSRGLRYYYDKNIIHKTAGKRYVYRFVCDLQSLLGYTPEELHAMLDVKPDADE
Procedure, shortened: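 Full-length recombinant human ETS1 (1 nM, no RUNX1) was incubated, per standard PBM protocols, on double-stranded Agilent 4 × 180k arrays of 36-bp genomic probes whose RUNX1 partner site was mutated. Bound ETS1 was detected with anti-ETS1 antibody (Cell Signaling Technology 14069) and Alexa488-conjugated secondary antibody, then scanned on a GenePix 4400A. Binding level is spot fluorescence intensity, summarised over replicate spots (four printed per sequence) and not normalised.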

| Sequence | ETS1 binding intensity |
| --- | --- |
| AGGGGCAGAGCACAGCACCACCGGAAGTAGGGCTCA | 9450 |
| CTAGGCAGACCAAAAACGTTAGGGCAGGAAATGATT | 727 |
| CTCACCTCAGGCCTGTGCTGGGGGTGCTTCCTGCTC | 445 |
| AGCACCCCATTCTACACCTCCACCTCATCCTGCGTC | 431 |
| GGAGCTGCAGCCGAGCTCCGTGTCCACTTCCGGGTT | 2460 |
| CTCGTGGGTGCCGGAAGTGGAGGCGGCTGGTGGGGT | 5910 |
| AGAGCGAGGCTGAGGGACCCCAGGATGGGGGACAGG | 350 |
| CCTCCGGAACGGCGCGGGGGATCGTGGGGTGTAGGG | 675 |
| GTAGCGCTGCTGGTCTTTGCGACACCATCCGCGCCT | 399 |
| ATGCAGAAATCCAACCTACAGGAAGGTGAGTCAGAA | 461 |
| TGGCGTTGGCGGGCTTGGCATGGGGCTTCCTCTGGG | 332 |
| AAAATTAAAGCAGGAAGTAATCAACCCCATCAAATG | 4750 |
| AAACTTGAGGTGGAGGAGAGCTGAGCACTTCCTATG | 402 |
| ACAGAAAGAAGCTGCAGGCCAAGCGGATGTCAGCGG | 670 |
| CTCACACCTTATCGCGAGCCCGGCGGATGCTGACGT | 527 |
| GGCCTCGGCCACATCCGGGTTCCACCGAAGATTCGG | 11800 |
| TCCTTGCTGTTTGCTTTCGCCGTTTCCGAACCGAGG | 623 |
| GGTTCGGTGGGAGTAGAGAGTGAGGAAATGAGTCAT | 500 |
| TGCTGCTCACCTCGCAGAAAGGATATGGGACCGGCG | 357 |
| TGGAGAGCACAGGAAGTGGCCCAGAGCCCAGGCCAA | 8500 |
| GAGGCCGTAAGGAGACAGAACTACACATCCTCCGTC | 426 |
| CCTTAGCACAGAGCACCATCTACGGGAAGTCCTAAG | 459 |
| GGAACCCGGAGAAGCCCCGCCTCCCGGAAGCGGAGC | 774 |
| TTGCGCCGGACGCCACTTTCGGTCCCCGTGGACACG | 602 |
| CCCATCCATCCGCCTCCAAAGTAACGTCAAGAATTT | 2320 |

| Sequence | ETS1 binding intensity |
| --- | --- |
| GAAAATCACAGAGGCATTCAAAGACAGGAAGCAGAG | 796 |
| CCTAAGTAATCACATTCTCGCTTCCTCCTTCCACAC | 753 |
| TGTGTCAACACCTCGGGCAGCTTCCGGTGCGACTGT | 8120 |
| TGGGTGCTGCAGGCCAAGCTTTCCCTTCCTTTGAGA | 298 |
| CGGCGCCTTCCGCAGAGGGACTGCAGCTTTCTGCGC | 1200 |
| CATCTCGCCTTCGGTCTGAGGAAGGGAACAGAAGGT | 353 |
| CCGCCACCGGAAGCGCCCTCCTAATCCCCGGAGCGC | 11800 |
| AATCATCAGGGAAATGCAAATCAAAACCCCAATCAG | 415 |
| TCTCTATGGTTTCCGTTGGGTGTGTGATTTTTTTGT | 2300 |
| GAGGTAGCCACCCACGACCAATCAGGAAACGGCGGC | 464 |
| AGCCTACATCCTGCACTGCTTAATCACAGCCCGCCT | 6070 |
| ACCCTCAGCTGCGCCTACAGACACTTCCTAGAATCT | 480 |
| CTCTCCAGATCGCGCATTTTGGGTCTCGGAAGAGGT | 388 |
| TCTTGTTTCTTCCGTTACCGGAGCGCGGCCACGTGA | 2590 |
| AGACTCCATCCGCCATGTTGGATGCCGTAGATTCGC | 2440 |
| GGTCCGGAAACGATTCTGGACCTGCAGGTATATCCA | 2860 |
| ATTACAGGAAGTATGTCCTCCTCTGCCTAAGCACTG | 4800 |
| CCAGGAAGGCGCCTGCATCCTCCAAGCCCAGAGAGC | 640 |
| GGACCAGCGGCGACCTGTAGGCGGAAGTCCGTGGCT | 889 ± 43 |
| AAATTCTTGACGTTACTTTGGAGGCGGATGGATGGG | 440 |
| GTGCTGGGGTGCTAGAGCGCGGCGCGACCGGACGCT | 412 |
| ACAGGCTGCTGTCGTTGACCAAGCTTCCTTTGCTGG | 367 |
| CCATTCCTACGGCCTTCATTGCTGCATCCGGTGGAG | 2480 |
| ACCACCCCCCGTTTCCTCCGAAGTGGCTGGTGCCTT | 1440 |
| GGCAAGACCAATCGGCGGCCACACGGAAGTGGGCGG | 426 |

| Sequence | ETS1 binding intensity |
| --- | --- |
| GGCAGGAGCAGCCGTAAACTAGGCCGGAAAACTGTC | 437 |
| CCTCCCGGCTTCCGTTCCTTGCCCACCTCCTTCTCG | 5200 |
| GAGCCACGCACACACAGCTCACAGGAAGAAGATAAG | 510 |
| GGCTACAGCAACCGTAAGGCATCACGGAAGTCGTAG | 471 |
| AGGCGCCGGAAAAACTACATCTCCCAAAATCCTCGG | 535 |
| CACCCTTCCGGCGGTGGCGGGCCTCGGTAATCGCCC | 5760 |
| CGTCCTGTGCTGCAGGCTCAGGCGGAACCCTGAACG | 327 |
| CTCTTCCAGGAAGCCTTCCCTGGCCACTGCTTGCTC | 734 |
| ACAAGGACTTCCGCCTCCCTGGGGTCCCTCCCCTAC | 10100 |
| CAGGGAAGTGATGCACAGAAAACACAAGCACACTGT | 425 |
| ATAGAAACTACAGGAAATACTGTGCTCAGGTTTTGA | 2430 |
| TGAGGCTCAGAGGAAGTGACTGGCCCTCAGGGTCAC | 1050 |
| GCTGACCCTGAGGGTGGCAGGAAGGAAGAGGAGTGA | 455 |
| GCTGTAGGAAATGTTATTCGCCGCGATCAGGACAGG | 536 |
| GGCAGCAAGAAAGGAAATAGTGTGCTTGGGTGGAGA | 911 |
| AACCCAGAGCTACCAGACAGCACAGGATGCAGACAA | 550 |
| CTGCGCGGCCGGAAGTCGGCGGATTCCCAGACGACG | 20700 |
| TTCTCTGCACTGCGATTTACTCAGGAAGAAGACAAC | 385 |
| AGCGTGCTCTTCGGTTCACTTCCGGCCAGCCCCTCC | 9360 |
| TGCGACGCGGCTAAGCCGGGCGAAGGCCGGAAGCGG | 1180 |
| TCGCCCGCCGCTTCCTGTCGCGGCGCCGCTGAGGCC | 12900 |
| CACCCGAACGGAAACACCTGCTGCTGAGGGGAGGGG | 1940 |
| CTCCCCAGGATGAGGGTCCCAGGGCTTACTCGCGCC | 331 |
| GGCGGGTTCCGGCTATTCCCTTCGAGGTCCAGTTTA | 2250 |
| CCTGTGCTGAGGGCTCAGGCGGAACCCGAAACGGTC | 371 |

| Sequence | ETS1 binding intensity |
| --- | --- |
| TCTGGACCAGCAGGCCGCTCAGTTTCCCGGTGTCCA | 358 |
| CTGCTGTAAAAATAGGCAGTGGGGGAGGAAGTTCAC | 535 |
| GAAGCCCAACAGGATGCCGAGTAAGCACCCACTGAA | 1520 |
| ACTAGAGCCAGCCACCTGCCTTCCGTCTTCCAGGCA | 417 |
| ATCTCACTGTGATTTTACTTTGCATTTCCTGTACTC | 1470 |
| TGATGTGATTTTGAAAGTGGAAGAGGGCAGGAAGTG | 637 |
| CCCAGCCCTTCCTGCAGGGTCGCTTGTAGGTCGGGT | 1520 |
| AAGTGGAGAGCGGAAGTGAGCTGTAGGTGACTGCAG | 10700 |
| GCTGGGGGGCTCCCGAAGAGGCAGGGAAGTGGCGGG | 617 |
| CTCCCACGCTCCCCTTCCGGCCCCGCTGCGCTGTGA | 3160 |
| TGCTGTCAAGTCACAGGCCTTTCCTGCTATCGTTTG | 569 |
| CACTGATAACTACCTCTCTACACTGCTTCCGCAGTG | 827 |
| GAACCACTTCCCTGAAACCATTTATCACATAAATCT | 1510 |
| GTCAGGCAGCTGTGCTCTTGCACGGAAGTCTTTAAT | 512 |
| TGGAGCCGGGGAAACGGCCAAGGTGGCGGGAGTCTC | 302 |
| GAGGTCCTGGAGGTTTCATTTCCGGGTGCAGCTTCT | 5230 |
| GAGAATCCACGCAAACCAAGCCACTTCCCCCAAGTC | 397 |
| CTAATGGCGAAAGCACGGAGAGAAGGAAGTGAAGAA | 507 |
| GATGAAAAGGAAACAAACTTGAGCTTCGGCGATGGG | 512 |
| GAAAGACAGGATGTGGGATAGATCTCAAGCACCTTT | 6280 |
| GCAAGACCTCGCATTAACATCTCGGAAACGGACAGC | 425 |
| TACAGTTCCGCTTGCTGTGATTTCAGTTACCCTCAG | 3600 |
| GCGCTTCCCGGCGTGCCCCGCGCAGCGGCCTGAAGG | 1730 |
| ACGGAGCTGTAGTTTAACGTTTCCGGTTCGTGGCTA | 9580 |
| CAGCGGCGGATTCGGCGGTGGCGGAAGTGGAGTGGG | 2010 |

| Sequence | ETS1 binding intensity |
| --- | --- |
| CCAGCAGCACATCCCCCTTCTTCGTCCCGAAGAGGG | 532 |
| CTGAGACATCCTGATAATTCTGTAGGTTACCCCAAA | 1950 |
| TTTCTTTCTGTGATTTATCCTTATTTCCTGGCTTCG | 788 |
| ATCGAGGAGCACGGTTACCGGACGGGCTGGGTCTAT | 303 |
| CAGAAACAGCAGAACTGAGCTGACGACCCGGAAGTG | 851 |
| GAGGCGTTTCCGCCTCCTTTTCGGGGTTGCCTTCTC | 7760 |
| AGCGCTTCCTGGCTCCGGCCCCGCCCCTGCAGTCGG | 6440 |
| GTGGGGGGCGGCTTGTTGGGGCGTCCGGTTCGCCGC | 1280 |
| CTTATCCCAGAAGGGCACCTGGCCGGAATAATGGAG | 342 |
| ACCCTCTTTCCGGTGGAAAGCGGCGGCCTCCCAGAG | 11900 |
| GTTCATCCAGGAAACCCCAACCCAGTGCCGCTGTAT | 702 |
| TGCCGCCTGCAGCACCCTCCCCATTTCCTGGCTGTA | 1190 |
| CTCCTGAGGAAGTAGTTACAGACACCCCAGCGGAGG | 708 |
| TGTGGAGACAGGAAGCACTAACCCCAAACCTCTTTC | 2810 |
| AGCTGTTCCGCCACGCTCGGCGTGGGCCGAGGTGGG | 489 |
| AGATCTTATAAGCTGCACAGGCCGGAAGGAAAAGGG | 654 |
| CCAGAGACAACAGCCACTCTCTTCTCCCCATCCGCC | 364 |
| CGTGGCGGGTGAGGGGCAGTGGTGGCGGCGGAAGCC | 542 |
| GCCCGGCCGCCTACGGCCCGGCTTCCGGTCCCGTCT | 7540 |
| CAGTCGCCAGAAAGCACAGCACTTCCGCCTGCTTCA | 3760 |
| GCAGGTCCACGGCGCATGCCTGAAGAGGAAGCCCAG | 290 |
| GTGTCGTGAGCCACAGGCTGCCATAGATCCGGAGGC | 371 |
| GCCATCCGCAGGACTCCGCGTTCTCGCGATAAGTGG | 939 |
| ACAGTTTCCTTGCTGTGATGTCAGCCCCCGCTGCAG | 1730 |
| CCAACACAGGAAATAATTTGAAACTACAATCAGAAA | 3170 |
